# Source: PubChem BioAssay AID1030 (National Center for Advancing Translational Sciences (NCATS), 2008)
# The campaign covered roughly 220,000 compounds. About 16,000 (7.3%) were called active. The inconclusive results got no clear call from the source; some entries with a clear call stand among them for comparison. The call rests on the fitted dose curve; in most records, active means well fitted inhibition curve with a large enough effect (not every such curve was filed as active); inconclusive means small, poorly fitted or top-dose-only effect, or another doubt; inactive means no such curve, though single readings can be large or run the other way. No potency is given beside an inconclusive call; the fits are too rough.
# Molecular target: Aldehyde dehydrogenase 1A1 (Homo sapiens) (UniProt P00352)
# Chain of UniProt P00352 (P00352 whole entry, looked up): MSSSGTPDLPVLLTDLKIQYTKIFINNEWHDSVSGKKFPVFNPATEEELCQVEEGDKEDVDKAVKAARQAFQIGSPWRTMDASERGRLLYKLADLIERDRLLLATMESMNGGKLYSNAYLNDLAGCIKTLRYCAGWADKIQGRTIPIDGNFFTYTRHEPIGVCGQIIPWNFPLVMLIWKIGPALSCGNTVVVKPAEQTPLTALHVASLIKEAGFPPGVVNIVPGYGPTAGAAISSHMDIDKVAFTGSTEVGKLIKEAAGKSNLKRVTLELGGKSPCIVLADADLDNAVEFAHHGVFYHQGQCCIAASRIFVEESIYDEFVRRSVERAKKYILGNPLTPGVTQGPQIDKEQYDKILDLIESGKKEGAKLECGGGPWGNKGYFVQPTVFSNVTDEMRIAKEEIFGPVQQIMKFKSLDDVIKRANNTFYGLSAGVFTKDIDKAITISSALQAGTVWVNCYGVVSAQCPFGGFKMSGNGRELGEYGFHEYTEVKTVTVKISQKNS
# Assay: qHTS Assay for Inhibitors of Aldehyde Dehydrogenase 1 (ALDH1A1)
# Details: Purified ALDH1A1, NADH fluorescence, propionaldehyde substrate; series mostly up to 75.3 µM
# Potency means the concentration at half of the fitted maximal effect; tags describe the fitted curve by direction and shape.
row,Compound,Potency
1,O=C(Nc1ccc(Cl)cc1)N1CCOC12CCC1(CC2)OCCO1,"inconclusive [inhibitor, single point]"
2,COc1ccc(C2CC(c3ccccc3)n3nnnc3N2)cc1 (centres undefined),"inconclusive [inhibitor, single point]"
3,N[C@H]1[C@@H](C(=O)O)[C@H]2C=C[C@H]1C2,active: 0.501 µM
4,COc1ccc2cc(CN(CC3CCCO3)S(=O)(=O)c3ccccc3Cl)c(=O)[nH]c2c1 (centres undefined),"inconclusive [inhibitor, partial curve]"
5,Cc1cccc(N2C(=O)c3cccc4c(N(C)CCO)ccc(c34)C2=O)c1,"inconclusive [inhibitor, partial curve]"
6,CC1CCC2C(=O)N(c3ccc(C(=O)NCc4ccccc4)cc3)C(=O)C2C1 (centres undefined),"inconclusive [inhibitor, single point]"
7,COc1ccc(/C(C)=N/NC(=S)Nc2cc(C)ccc2C)cc1,"inconclusive [inhibitor, single point]"
8,Cc1nn(Cc2c(Cl)cccc2Cl)c(C)c1NC(=O)CCCn1nc(C)c([N+](=O)[O-])c1C,active: 3.55 µM
9,CCOc1ccc(C(=O)NC2CCN(C(=S)NCc3ccco3)CC2)cc1,"inconclusive [inhibitor, single point]"
10,Cc1ccc(-c2nc3ccsc3c(=O)o2)cc1,inactive
11,O=C1CC(N2CCN(c3ccccc3Cl)CC2)C(=O)N1c1ccc(F)cc1 (centres undefined),inactive
12,Cn1ncc(S(=O)(=O)Cc2ccccc2)c(Cl)c1=O,active: 1.12 µM
13,Cc1ccc(-n2c3c(cc(C(=O)Nc4cccc(C)n4)c2=O)C(=O)CCC3)cc1,"inconclusive [inhibitor, single point]"
14,COc1ccc(Cc2nnc(SCC(=O)N3CCN(c4ccccc4)CC3)o2)cc1,"inconclusive [inhibitor, single point]"
15,Cc1ccc(C)c(S(=O)(=O)Nc2ccc(S(=O)(=O)Nc3onc(C)c3C)cc2)c1,"inconclusive [inhibitor, partial curve]"
16,Cc1cccc(CN2CCc3c(OCC(=O)NCc4ccco4)cccc3C2=O)c1,active: 22.4 µM
17,Cc1onc(-c2ccccc2Cl)c1C(=O)OCC(=O)Nc1cccc(S(=O)(=O)N(C)C)c1,"inconclusive [inhibitor, partial curve]"
18,COc1ccc(CNc2nc3ccccc3n2CCN2CCOCC2)cc1,inactive
19,O=S(=O)(CCc1ccccc1)/N=C/c1cccs1,"inconclusive [inhibitor, single point]"
20,Cc1ccc(-c2nc3cccnc3o2)cc1NC(=O)COc1ccc(Cl)cc1C,inactive
21,Cc1nc(NC(=O)/C=C/c2ccccc2)sc1C(=O)N(C)C,inactive
22,NC1=NC(=O)C(CC(=O)NCc2ccccc2)S1 (centres undefined),"inconclusive [inhibitor, single point]"
23,CC(C)C1O[C@H](/C=C\c2ccccc2)OCC1(C)C (some centres undefined),"inconclusive [inhibitor, partial curve]"
24,CCOC(=O)C(C)Oc1ccc(C2NC(=O)NC(C)=C2C(=O)Nc2ccccc2C)cc1 (centres undefined),"inconclusive [inhibitor, single point]"
25,COc1cccc(NC=C2C(=O)OC3(CCCCC3)OC2=O)c1,active: 1.58 µM

row,Compound,Potency
1,COc1cc(OC)c2c(c1)C(=O)c1cc(OC)cc(OC)c1C2=O,"inconclusive [inhibitor, partial curve]"
2,Cn1ccnc1SCC(=O)Nc1ccc2c(c1)COC2=O,"inconclusive [inhibitor, single point]"
3,COc1ccc(-n2ccnc2CN2CCN(C3CCCC3)C(CCO)C2)cc1 (centres undefined),"inconclusive [inhibitor, single point]"
4,COc1cc(/C=C/C(=O)OCC(=O)Nc2ccc3c(c2)OCCO3)ccc1O,"inconclusive [inhibitor, partial curve]"
5,CC(=O)NC1C(=O)N(CC(C)C)c2ccccc21 (centres undefined),active: 0.0398 µM
6,Oc1ccccc1N=Nc1nc(-c2ccccc2)c(-c2ccccc2)[nH]1,inactive
7,O=S(=O)(NCCc1cn2ccccc2n1)c1ccc2c(c1)CCCC2,"inconclusive [inhibitor, single point]"
8,CCC(C)Sc1nc2c(c(=O)[nH]c(=O)n2C)n1CC(O)COc1ccccc1C (centres undefined),active: 14.1 µM
9,O=C(/C=C/c1ccco1)N1CCN(S(=O)(=O)/C=C/c2ccccc2)CC1,active: 7.94 µM
10,COc1cc(-c2nc(=S)[nH][nH]2)cc(OC)c1OC,"inconclusive [inhibitor, single point]"
11,COc1ccc(NS(=O)(=O)c2cccc(-c3nnc(-c4ccccc4)o3)c2)cc1,"inconclusive [inhibitor, single point]"
12,COc1cc2c(cc1OC)C(c1cccnc1)CC(=O)N2 (centres undefined),inactive
13,COc1ccccc1CNC(=O)c1cc2sccc2n1C,"inconclusive [inhibitor, single point]"
14,COc1cc(C2N(c3ccc(F)cc3)C(=O)C3CCCN32)cc(OC)c1OC (centres undefined),"inconclusive [inhibitor, single point]"
15,Cn1c(=O)c2c(nc(CN3CCN(c4ccccc4)CC3)n2Cc2c(F)cccc2Cl)n(C)c1=O,inactive
16,NC(Cc1c[nH]c2ccccc12)C(=O)NCc1ccco1 (centres undefined),inactive
17,CCN(CC)S(=O)(=O)c1cc(OC)c(Cl)cc1OC,inactive
18,CCCOc1ccc(NC(=O)OC2CCN(C)CC2)cc1,inactive
19,O=C(CN1CCOCC1)N1CCCc2ccccc21,active: 7.94 µM
20,O=S(=O)(c1ccc(Cl)cc1)N(CCCN1CCOCC1)Cc1cccs1,active: 12.6 µM
21,CCOc1cc(/C=C2\C(=O)NN(c3ccccc3)C2=O)cc([N+](=O)[O-])c1O,"inconclusive [inhibitor, single point]"
22,COc1ccc(Nc2nnc(SCC(=O)N3CC(=O)Nc4ccccc43)s2)cc1,"inconclusive [inhibitor, single point]"
23,Cn1cc([N+](=O)[O-])c(C(=O)N/N=C\c2c[nH]c3ccccc23)n1,"inconclusive [inhibitor, single point]"
24,O=C(N=Nc1c(O)[nH]c2ccc(Cl)cc12)c1cc(-c2cccs2)nc2ccccc12,inactive
25,O=C(O)Cc1sc(-c2ccc(Cl)cc2)nc1-c1ccccc1,"inconclusive [inhibitor, single point]"

row,Compound,Potency
1,CCNC(=S)Nc1scc(-c2ccccc2)c1C(=O)OCC,active: 28.2 µM
2,CN1CCN(CCCN2c3ccccc3Sc3ccc(S(=O)(=O)N(C)C)cc32)CC1,inactive
3,CC1CN(CCCCN2C(=O)c3ccccc3C2=O)CC(C)O1 (centres undefined),"inconclusive [inhibitor, single point]"
4,COc1ccccc1NC(=O)c1ccc(-c2nn(C)c(=O)c3ccccc23)cc1,inactive
5,CS(=O)(=O)N(CC(=O)N1CCc2ccccc2C1)Cc1ccc(Cl)cc1,"inconclusive [inhibitor, partial curve]"
6,Cc1ccc(C)c(NC(=O)CNS(=O)(=O)c2ccccc2)c1,inactive
7,Cc1noc(/C=C/c2ccco2)c1S(=O)(=O)N1CCC(C(=O)Nc2ccc(Cl)cn2)CC1,active: 15.8 µM
8,CCNC(=O)NC(=O)C(C)Sc1nc2cc(C(=O)OC)ccc2c(=O)n1-c1ccccc1 (centres undefined),active: 22.4 µM
9,O=S(=O)(c1ccc(NC(=S)NCCC(c2ccccc2)c2ccccc2)cc1)N1CCOCC1,active: 12.6 µM
10,O=C1C2C3C=CC(C3)C2C(=O)N1Cc1ccccc1 (centres undefined),"inconclusive [inhibitor, single point]"
11,Cn1ncc(Cl)c1C(=O)Nc1sc2c(c1C(N)=O)CCC2,"inconclusive [inhibitor, partial curve]"
12,O=c1cc(-c2c(O)c3ccccc3n(Cc3ccccc3)c2=O)[nH][nH]1,"inconclusive [inhibitor, single point]"
13,COc1ccc(C(=O)NCC(=O)OCc2ccccc2F)cc1,"inconclusive [inhibitor, single point]"
14,Cn1cc(CN(Cc2ccccn2)C[C@@H]2CCC(=O)N2)c(-c2ccccc2F)n1,"inconclusive [inhibitor, single point]"
15,CN(C)c1ccc2c(c1)OC(N)=C(C#N)C2c1cccc(F)c1 (centres undefined),inactive
16,CCCOc1ccc(N2C(=O)CC(SCc3nc4ccccc4[nH]3)C2=O)cc1 (centres undefined),active: 15.8 µM
17,CC(=O)CCS(=O)(=O)c1ccc(C)c(C)c1,"inconclusive [inhibitor, single point]"
18,CCOC(=O)c1cc(C)nc(S(C)(=O)=O)c1C#N,inactive
19,CC(=O)Nc1c(S(=O)(=O)c2ccccc2)c2nc3ccccc3nc2n1Cc1ccccc1,"inconclusive [inhibitor, partial curve]"
20,O=[N+]([O-])c1ccc(N2CCCCC2)cc1SCCO,"inconclusive [inhibitor, single point]"
21,O=C1CSC(c2cccnc2)N1c1ccccc1 (centres undefined),"inconclusive [inhibitor, single point]"
22,Nc1nonc1C(=O)NCCN=Cc1cc(Cc2ccccc2)cc(Br)c1O,inactive
23,CN(C)S(=O)(=O)c1ccc(Cl)c(NC(=O)COc2ccccc2[N+](=O)[O-])c1,inactive
24,COc1ccc(C2CC(c3ccccc3OC(C)=O)=NN2C(=O)/C=C/c2ccccc2)cc1 (centres undefined),"inconclusive [inhibitor, single point]"
